Measurements as given in PMC5540273 (PLoS ONE, 2017).
For some of these results: The strong results were mostly taken out for another list; the other results follow. This is a selection; strong and weak results do not stand in their true shares.

Assays:
Settings in all cases: concentration: 1 μM,replicates: in singlicate; n = 1
[1] = tested on: ICK
[2] = tested on: IGF1R
[3] = tested on: T1, IKK-alpha
T1 construct: gene CHUK

[4] = tested on: T2, IKK-beta
T2 construct: gene IKBKB

[5] = tested on: T3, IKK-epsilon
T3 construct: gene IKBKE

[6] = tested on: INSRR
[7] = tested on: INSR
[8] = tested on: IRAK1
[9] = tested on: IRAK3
[10] = tested on: IRAK4
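Also: KINOMEscan kinase panel screen.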

## CS(=O)(=O)c1ccccc1-c1nc(-c2ccc(F)cc2)c(-c2ccncc2)[nH]1 [SB-213663]
[1]
  %Inh: 16%
[2]
  %Inh: 0%
[3]
  %Inh: 0%
[4]
  %Inh: 0%
[5]
  %Inh: 0%
[6]
  %Inh: 0%
[7]
  %Inh: 0%
[8]
  %Inh: 0%
[9]
  %Inh: 0%
[10]
  %Inh: 0%

## O=C1NC(=O)C(c2ccccc2)=C1Nc1ccc(Cl)c(C(=O)O)c1 [SB-390532]
[1]
  %Inh: 5%
[2]
  %Inh: 18%
[3]
  %Inh: 42%
[4]
  %Inh: 22%
[5]
  %Inh: 10%
[6]
  %Inh: 0%
[7]
  %Inh: 11%
[8]
  %Inh: 58%
[9]
  %Inh: 0%
[10]
  %Inh: 45%

## O=C(O)c1ccc(-c2nc(-c3ccc(F)cc3)c(-c3ccncc3)[nH]2)cc1 [SB-202620]
[1]
  %Inh: 46%
[2]
  %Inh: 28%
[3]
  %Inh: 0%
[4]
  %Inh: 0%
[5]
  %Inh: 3%
[6]
  %Inh: 3%
[7]
  %Inh: 19%
[8]
  %Inh: 0%
[9]
  %Inh: 10%
[10]
  %Inh: 0%

## O=C1NC(=O)C(c2ccccc2Cl)=C1Nc1ccccc1 [SB-376715]
[1]
  %Inh: 22%
[2]
  %Inh: 0%
[3]
  %Inh: 0%
[4]
  %Inh: 0%
[5]
  %Inh: 31%
[6]
  %Inh: 0%
[7]
  %Inh: 0%
[8]
  %Inh: 12%
[9]
  %Inh: 21%
[10]
  %Inh: 15%

## O=C1NC(=O)C(c2ccc(Cl)cc2)=C1Nc1ccccc1 [SB-317661]
[1]
  %Inh: 0%
[2]
  %Inh: 0%
[3]
  %Inh: 21%
[4]
  %Inh: 7%
[5]
  %Inh: 0%
[6]
  %Inh: 0%
[7]
  %Inh: 9%
[8]
  %Inh: 31%
[9]
  %Inh: 0%
[10]
  %Inh: 0%

## CSc1ccc(NC2=C(c3cccc(Cl)c3)C(=O)NC2=O)cc1 [SB-341528]
[1]
  %Inh: 4%
[2]
  %Inh: 0%
[3]
  %Inh: 0%
[4]
  %Inh: 0%
[5]
  %Inh: 17%
[6]
  %Inh: 0%
[7]
  %Inh: 0%
[8]
  %Inh: 0%
[9]
  %Inh: 5%
[10]
  %Inh: 0%

## COc1ccc(C2=C(Nc3cccc(Cl)c3)C(=O)NC2=O)cc1 [SB-326892]
[1]
  %Inh: 0%
[2]
  %Inh: 0%
[3]
  %Inh: 0%
[4]
  %Inh: 0%
[5]
  %Inh: 0%
[6]
  %Inh: 1%
[7]
  %Inh: 1%
[8]
  %Inh: 0%
[9]
  %Inh: 20%
[10]
  %Inh: 0%

## O=C1NC(=O)c2c1c(-c1ccccc1)cc1[nH]c3ccc(O)cc3c21
[1]
  %Inh: 33%
[2]
  %Inh: 0%
[3]
  %Inh: 56%
[4]
  %Inh: 36%
[5]
  %Inh: 22%
[6]
  %Inh: 21%
[7]
  %Inh: 3%
[8]
  %Inh: 20%
[9]
  %Inh: 31%
[10]
  %Inh: 0%

## O=C1NC(=O)C(c2ccc(Cl)cc2)=C1Nc1ccc(O)c(Cl)c1 [SB-405367]
[1]
  %Inh: 22%
[2]
  %Inh: 0%
[3]
  %Inh: 0%
[4]
  %Inh: 10%
[5]
  %Inh: 4%
[6]
  %Inh: 0%
[7]
  %Inh: 13%
[8]
  %Inh: 0%
[9]
  %Inh: 15%
[10]
  %Inh: 0%

## COc1cccc(C2=C(Nc3ccc(SC)cc3)C(=O)NC2=O)c1 [SB-331032]
[1]
  %Inh: 0%
[2]
  %Inh: 0%
[3]
  %Inh: 20%
[4]
  %Inh: 0%
[5]
  %Inh: 0%
[6]
  %Inh: 0%
[7]
  %Inh: 30%
[8]
  %Inh: 11%
[9]
  %Inh: 12%
[10]
  %Inh: 0%

## O=C1NC(=O)C(c2ccccc2Cl)=C1Nc1cccc(C(=O)O)c1 [SB-390526]
[1]
  %Inh: 11%
[2]
  %Inh: 17%
[3]
  %Inh: 99.4%
[4]
  %Inh: 0%
[5]
  %Inh: 11%
[6]
  %Inh: 1%
[7]
  %Inh: 0%
[8]
  %Inh: 22%
[9]
  %Inh: 21%
[10]
  %Inh: 7%

## O=C1NC(=O)C(c2ccccc2)=C1Nc1cc(Cl)c(O)c(Cl)c1 [SB-390530]
[1]
  %Inh: 47%
[2]
  %Inh: 6%
[3]
  %Inh: 0%
[4]
  %Inh: 0%
[5]
  %Inh: 0%
[6]
  %Inh: 19%
[7]
  %Inh: 0%
[8]
  %Inh: 0%
[9]
  %Inh: 0%
[10]
  %Inh: 0%

## O=C1NC(=O)C(c2ccc(Cl)cc2)=C1Nc1cccc(O)c1 [SB-333613]
[1]
  %Inh: 29%
[2]
  %Inh: 0%
[3]
  %Inh: 34%
[4]
  %Inh: 28%
[5]
  %Inh: 0%
[6]
  %Inh: 8%
[7]
  %Inh: 26%
[8]
  %Inh: 32%
[9]
  %Inh: 3%
[10]
  %Inh: 0%

## Cc1cc(C)cc(Oc2nccc(-c3c(-c4ccc(F)cc4)ncn3C3CCNCC3)n2)c1.O=C(O)C(F)(F)F.O=C(O)C(F)(F)F.O=C(O)C(F)(F)F [SB-284851]
[1]
  %Inh: 0%
[2]
  %Inh: 0%
[3]
  %Inh: 0%
[4]
  %Inh: 0%
[5]
  %Inh: 0%
[6]
  %Inh: 0%
[7]
  %Inh: 0%
[8]
  %Inh: 0%
[9]
  %Inh: 10%
[10]
  %Inh: 0%

## Cc1ccc(C)c(Oc2nccc(-c3c(-c4ccc(F)cc4)ncn3C3CCNCC3)n2)c1.O=C(O)C(F)(F)F.O=C(O)C(F)(F)F.O=C(O)C(F)(F)F [SB-284852]
[1]
  %Inh: 0%
[2]
  %Inh: 0%
[3]
  %Inh: 0%
[4]
  %Inh: 0%
[5]
  %Inh: 0%
[6]
  %Inh: 0%
[7]
  %Inh: 0%
[8]
  %Inh: 6%
[9]
  %Inh: 0%
[10]
  %Inh: 0%

## O=C1NC(=O)C(c2ccc(Cl)cc2)=C1Nc1cccc(C(=O)O)c1 [SB-360737]
[1]
  %Inh: 0%
[2]
  %Inh: 1%
[3]
  %Inh: 44%
[4]
  %Inh: 41%
[5]
  %Inh: 0%
[6]
  %Inh: 0%
[7]
  %Inh: 10%
[8]
  %Inh: 48%
[9]
  %Inh: 0%
[10]
  %Inh: 46%
